Source: publication PMC4336329 (PLoS ONE, 2015)
Out of some 310,000 compounds screened, about 2,200 (0.71%) showed an effect of 50% or more. The effect is printed as a negative number. Some of the results follow.

What follows are compounds tested against human ether-à-go-go-related gene (hERG) potassium channel (human, UniProt Q12809) (assay: primary screen, population patch clamp on CHO cells stably expressing hERG).
Sequence of human ether-à-go-go-related gene (hERG) potassium channel (Q12809 whole entry, looked up): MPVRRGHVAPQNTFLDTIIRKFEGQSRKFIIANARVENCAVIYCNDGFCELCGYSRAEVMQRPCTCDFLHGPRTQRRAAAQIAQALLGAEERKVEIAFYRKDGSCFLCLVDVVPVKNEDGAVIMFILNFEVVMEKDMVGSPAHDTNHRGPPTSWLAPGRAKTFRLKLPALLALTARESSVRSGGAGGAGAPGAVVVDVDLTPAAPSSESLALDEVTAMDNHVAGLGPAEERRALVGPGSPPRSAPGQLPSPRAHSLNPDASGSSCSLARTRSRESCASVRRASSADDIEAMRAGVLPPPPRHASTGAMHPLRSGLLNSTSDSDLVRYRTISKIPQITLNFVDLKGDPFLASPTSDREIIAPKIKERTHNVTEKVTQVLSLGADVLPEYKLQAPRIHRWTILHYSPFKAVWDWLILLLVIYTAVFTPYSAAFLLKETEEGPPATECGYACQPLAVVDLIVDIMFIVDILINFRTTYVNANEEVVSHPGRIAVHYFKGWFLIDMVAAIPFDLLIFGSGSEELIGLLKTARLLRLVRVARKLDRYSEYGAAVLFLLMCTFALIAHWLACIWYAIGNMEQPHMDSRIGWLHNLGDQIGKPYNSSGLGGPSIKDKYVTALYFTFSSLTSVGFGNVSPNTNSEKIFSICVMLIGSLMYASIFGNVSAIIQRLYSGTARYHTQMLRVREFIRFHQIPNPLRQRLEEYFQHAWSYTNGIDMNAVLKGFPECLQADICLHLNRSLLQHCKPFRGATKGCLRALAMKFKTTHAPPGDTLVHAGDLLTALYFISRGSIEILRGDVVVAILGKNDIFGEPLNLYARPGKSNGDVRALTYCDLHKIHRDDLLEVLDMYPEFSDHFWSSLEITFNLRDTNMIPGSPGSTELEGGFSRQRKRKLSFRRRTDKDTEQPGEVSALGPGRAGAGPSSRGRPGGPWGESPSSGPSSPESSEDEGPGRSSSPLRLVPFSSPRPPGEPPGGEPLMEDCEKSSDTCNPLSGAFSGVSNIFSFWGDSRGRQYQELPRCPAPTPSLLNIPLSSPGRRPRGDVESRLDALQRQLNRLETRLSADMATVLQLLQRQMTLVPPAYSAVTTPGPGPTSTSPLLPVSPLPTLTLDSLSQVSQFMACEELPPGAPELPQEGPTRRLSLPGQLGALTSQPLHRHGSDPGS

**Q.** With `N#CCCn1cc(/C=N/O)c(-c2ccccc2)n1` as the compound, how does the “hERG current change (%, negative = inhibition) at 1uM” value read?
**A.** -1.87%

**Q.** How did the “hERG current change (%, negative = inhibition) at 1uM” value turn out when `COc1ccccc1OCCNC(=O)CNC(=O)c1ccc(C(C)(C)C)cc1` was run?
**A.** -8.23%

**Q.** For `Cc1ccnc(Nc2nc(-c3ccc(F)cc3)cs2)c1`, which “hERG current change (%, negative = inhibition) at 1uM” value is on record?
**A.** 15.7%

**Q.** With `CCOC(=O)CCCCC(=O)c1[nH]c(=O)[nH]c1Cn1cnc2ccccc21` as the compound, how does the “hERG current change (%, negative = inhibition) at 1uM” value read?
**A.** 9.51%

**Q.** For `CCc1ccc2nc(NC(=O)CSCc3c(C)noc3C)sc2c1`, which “hERG current change (%, negative = inhibition) at 1uM” value is on record?
**A.** -5.3%

**Q.** For `CCc1c(O)nc(SCC(=O)N2CCOCC2)n(-c2ccccc2)c1=O`, which “hERG current change (%, negative = inhibition) at 1uM” value is on record?
**A.** 16%

**Q.** How did the “hERG current change (%, negative = inhibition) at 1uM” value turn out when `COC(=O)CC1(c2ccc(OC)cc2)C(=O)c2ccccc2C1=O` was run?
**A.** 8.75%

**Q.** With `NC(=O)c1cc(S(=O)(=O)Nc2ccccc2)cs1` as the compound, how does the “hERG current change (%, negative = inhibition) at 1uM” value read?
**A.** 13.6%

**Q.** Which “hERG current change (%, negative = inhibition) at 1uM” value does the source give for `COCCNC(=O)c1cc2cc(Br)cc(Br)c2oc1=O` here?
**A.** 20.2%

**Q.** How did the “hERG current change (%, negative = inhibition) at 1uM” value turn out when `Nc1nc(CSc2nnnn2-c2ccc(F)c(Cl)c2)nc(N2CCOCC2)n1` was run?
**A.** 1.76%

**Q.** `CC1CCCCC1NC(=O)c1c(O)nc2ccccn2c1=O` (centres unmarked) was tested. Which “hERG current change (%, negative = inhibition) at 1uM” value did it give?
**A.** 5.38%

**Q.** How did the “hERG current change (%, negative = inhibition) at 1uM” value turn out when `O=C(CCN1C(=O)c2ccccc2C1=O)Nc1sc2c(c1C(=O)NCc1ccco1)CCCC2` was run?
**A.** -2.26%

**Q.** With `Cc1c(-c2cc[n+]([O-])cc2)oc2ccc(Br)cc2c1=O` as the compound, how does the “hERG current change (%, negative = inhibition) at 1uM” value read?
**A.** -15.6%

**Q.** Which “hERG current change (%, negative = inhibition) at 1uM” value does the source give for `COc1ccc(S(=O)(=O)NCc2ccc(C(=O)N3CCN(Cc4ccccc4)CC3)cc2)cc1` here?
**A.** 11%

**Q.** With `COc1ccc(Cc2nnc(SCC(=O)Nc3ccccc3)[nH]c2=O)cc1` as the compound, how does the “hERG current change (%, negative = inhibition) at 1uM” value read?
**A.** 10.1%

**Q.** How did the “hERG current change (%, negative = inhibition) at 1uM” value turn out when `Cc1nnc(SCC(=O)Nc2nsc(-c3ccc(C(C)(C)C)cc3)n2)s1` was run?
**A.** 5.33%

**Q.** For `CC(C)Oc1cccc(-c2cc(C(=O)NC(=S)N(C)c3ccccc3C(=O)O)c3ccccc3n2)c1`, which “hERG current change (%, negative = inhibition) at 1uM” value is on record?
**A.** 13.4%

**Q.** Which “hERG current change (%, negative = inhibition) at 1uM” value does the source give for `Cc1ccn2c(CNCCn3cccn3)c(C(=O)N3CCCCCC3)nc2c1` here?
**A.** 8.37%

**Q.** For `O=c1cc(CN2CCN(C/C=C/c3ccccc3)CC2)c2cc(O)ccc2o1`, which “hERG current change (%, negative = inhibition) at 1uM” value is on record?
**A.** -86%

**Q.** How did the “hERG current change (%, negative = inhibition) at 1uM” value turn out when `Cc1cccc(NC(=S)N(c2ccccc2)C(C)C)c1C` was run?
**A.** -1.76%

**Q.** For `Cc1oc(-c2ccccc2F)nc1CS(=O)(=O)CC(=O)NCCCN1CC(C)CC(C)C1` (centres unmarked), which “hERG current change (%, negative = inhibition) at 1uM” value is on record?
**A.** 8.7%

**Q.** How did the “hERG current change (%, negative = inhibition) at 1uM” value turn out when `O=C(CCC1CCCN(C(=O)CCN2CCCCC2=O)C1)NCc1ccccc1F` (centres unmarked) was run?
**A.** 16.8%

**Q.** With `O=C(CSc1ccc(-c2ccco2)nn1)Nc1ccc(F)cc1` as the compound, how does the “hERG current change (%, negative = inhibition) at 1uM” value read?
**A.** -21.2%

**Q.** `COC(CNC(=O)c1cccc(-n2c(=S)[nH]c3cc(Cl)ccc3c2=O)c1)OC` was tested. Which “hERG current change (%, negative = inhibition) at 1uM” value did it give?
**A.** 13.5%

**Q.** For `COCCCNC(=O)CN1C(=O)CSc2ncccc21`, which “hERG current change (%, negative = inhibition) at 1uM” value is on record?
**A.** 4.29%

**Q.** `O=C(Nc1ccncc1)c1ccc2c(c1)OCCO2` was tested. Which “hERG current change (%, negative = inhibition) at 1uM” value did it give?
**A.** 11.3%

**Q.** How did the “hERG current change (%, negative = inhibition) at 1uM” value turn out when `Cn1cnc2cc(NC(=O)COc3ccccc3)ccc21` was run?
**A.** 17.6%

**Q.** With `CCN(CC)C(=O)Cn1cc(C(=O)C(=O)NCCCN2CCCCC2)c2ccccc21` as the compound, how does the “hERG current change (%, negative = inhibition) at 1uM” value read?
**A.** 12.5%

**Q.** With `CCC(C(=O)NCCc1ccc(S(N)(=O)=O)cc1)c1ccccc1` (centres unmarked) as the compound, how does the “hERG current change (%, negative = inhibition) at 1uM” value read?
**A.** 12.6%

**Q.** Which “hERG current change (%, negative = inhibition) at 1uM” value does the source give for `O=C(c1ccc2c(=O)n(Cc3ccccc3Cl)c(=S)[nH]c2c1)N1CCCC1` here?
**A.** 9.61%

**Q.** For `Cc1ccc2c(c1)C1CN(C)CCC1N2C(=S)Nc1cccnc1` (centres unmarked), which “hERG current change (%, negative = inhibition) at 1uM” value is on record?
**A.** 6.29%

**Q.** With `Cc1ccc(C(=O)OCC(=O)Nc2ccccc2Cl)c(O)c1` as the compound, how does the “hERG current change (%, negative = inhibition) at 1uM” value read?
**A.** 10.1%

**Q.** How did the “hERG current change (%, negative = inhibition) at 1uM” value turn out when `O=C(NC1CC2CCCC(C1)N2)c1ccccc1` (centres unmarked) was run?
**A.** 12.8%

**Q.** With `CCC1=C(OC(=O)N(CC)CC)N2C(=O)OC(=NCC3CC3)[C@]2(Cc2ccccc2)[C@H]2C1=CC[C@H]1C(=O)N(CC)C(=O)[C@H]12` as the compound, how does the “hERG current change (%, negative = inhibition) at 1uM” value read?
**A.** 5.18%

**Q.** How did the “hERG current change (%, negative = inhibition) at 1uM” value turn out when `Cc1cccc2sc(N(CCN(C)C)C(=O)c3cc(Cl)sc3Cl)nc12.Cl` was run?
**A.** -5.54%

**Q.** For `CCn1c2ccccc2c2cc(CNCCCN3CCOCC3)ccc21.Cl`, which “hERG current change (%, negative = inhibition) at 1uM” value is on record?
**A.** 10.5%

**Q.** Which “hERG current change (%, negative = inhibition) at 1uM” value does the source give for `CC(=O)Nc1ccc(S(=O)(=O)Nc2nc3ccccc3nc2Nc2ccc3ccccc3c2)cc1` here?
**A.** 16.8%

**Q.** With `Cc1ccc(C(C)C)c(OCC(=O)N/N=C/c2cccn2C)c1` as the compound, how does the “hERG current change (%, negative = inhibition) at 1uM” value read?
**A.** 9.67%

**Q.** For `COc1ccc(CNC(=O)C(C)OC(=O)CN2C(=O)COc3ccccc32)cc1` (centres unmarked), which “hERG current change (%, negative = inhibition) at 1uM” value is on record?
**A.** 6.02%

**Q.** With `COC(=O)CCNC(=O)Cc1c(C)n(C(=O)c2ccc(Cl)cc2)c2ccc(OC)cc12` as the compound, how does the “hERG current change (%, negative = inhibition) at 1uM” value read?
**A.** 8.1%

**Q.** For `O=C(NCCCN1CCCC(O)C1)c1cc(COc2ccc(F)cc2F)on1` (centres unmarked), which “hERG current change (%, negative = inhibition) at 1uM” value is on record?
**A.** 7.25%

**Q.** For `O=c1[nH]n(Cc2ccccc2)c(=O)c2ccccc12`, which “hERG current change (%, negative = inhibition) at 1uM” value is on record?
**A.** 11%

**Q.** `CCc1ccc(C2C3=C(CC(C)(C)CC3=O)OC3=C2C(=O)CC(C)(C)C3)cc1` was tested. Which “hERG current change (%, negative = inhibition) at 1uM” value did it give?
**A.** 12.6%

**Q.** `COC(=O)c1cccc(COC(=O)c2ccc(N(C)C)cc2)c1` was tested. Which “hERG current change (%, negative = inhibition) at 1uM” value did it give?
**A.** -5.82%
